This is an account of results in the supplement of paper PMC11417369.

± gives the standard deviation of the averaged measurements. The list shows a part of the results.

The subject of the assay is PfAP2-I AP2 domain 3 (GST-tagged). The assay can be described thus: gcPBM binding intensity (ln(normalized median fluorescence intensity)); higher = stronger DNA binding. In a few lines:
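GST-fused DNA-binding domains of P. falciparum, expressed in E. coli, were applied at about 25 μg on average for 1 h to an Agilent 4 × 180k array of primer-extended double-stranded 36-bp intergenic genomic probes and negative controls. Binding intensity is the highest Masliner-normalised natural-log median intensity across replicate spots of either probe orientation, measured with Alexa488 anti-GST antibody and a 488 nm scan.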
Turning to “TAATTAATTTACATTTTAATTTTATACAAAATTTAT [CACACA_negctrl_site830]”, the “gcPBM binding intensity (ln)” value is 7.35 ± 0.4.
The same measure for “ACATATTTATATTCTACACACTTATACTATAATACA [CACACA_site7204]”: 8.05 ± 0.49.
The same measure for “GTTATACGCATCAACACACACATACAACGTGGTGTA [CACACA_site1188]”: 7.62 ± 0.46; for “ATGGAACTTAAAAATTGTACACATAAAATGGAGAAG [XGTACX_site1823]”: 8.13 ± 0.7.
The same measure for “GCTATAAATACAGACGCACACATATACATACAGATA [CACACA_site5778]”: 8.22 ± 0.4; for “TGTTATTAGAAAAATGCACACCAAAAAAAAAAAAAA [CACACA_site8802]”: 8.7 ± 0.13; for “ATATACATAATATATAATATAAATATATATATGGAA [CACACA_negctrl_site906]”: 7.3 ± 0.26.
Turning to “TATTAAAATATTTATACACACATAATTTTGATAAAT [CACACA_site4486]”, the “gcPBM binding intensity (ln)” value came to 7.72 ± 0.35.
The same measure for “TGTCATTCCTCTTATTGTACAAAAATATTATAATAT [XGTACX_site1134]”: 8.21 ± 0.41; for “TATTTAAATTTGTATAATGGACGAATTATATAGAAA [GTGCAC_negctrl_site650]”: 7.8 ± 0.64; for “CCCACAGACGGACACACACACATATATATATATATA [CACACA_site4351]”: 9.43 ± 0.35.
As to “TCAAAACATTATTCCATACACACCATACTTTTTAAT [CACACA_site2770]”, the “gcPBM binding intensity (ln)” value stood at 8.02 ± 0.71.
Consider “TTGAATTATAAGAATAAACACACAAGCTTAAAAAAA [CACACA_site8318]”, for which the “gcPBM binding intensity (ln)” value was 7.61 ± 0.68.
“TTTAATTTTTTTTATAGTACATAAAAAATAAAAAAA [XGTACX_site5631]”: the “gcPBM binding intensity (ln)” value came out at 7.72 ± 0.28.
Consider “TTTATTTGTGCATATACACACTTAAATATGTTTATT [CACACA_site7772]”, for which the “gcPBM binding intensity (ln)” value came to 9.405 ± 0.035.
The same measure for “TACAACCTTATAATTAGTACTTAGTTATGCTGTAAA [XGTACX_site6052]”: 7.5 ± 0.52.
For the sequence “ACATAAAATTGGAGCAAACACACAAGGTTGAAATTA [CACACA_site505]”, the “gcPBM binding intensity (ln)” value worked out at 7.66 ± 0.66.
The same measure for “TTTGTTATGGTTTTCTCACACATATATATATATATA [CACACA_site4617]”: 9.47 ± 0.47; for “CCGATATAATGGAAAACACACAAAAGATATTTATAT [CACACA_site7293]”: 7.71 ± 1; for ATTATAATACTTTGTATGCACTAATCAATTATTAAA: 10.1 ± 0.38.
As to “CTGTAAAAAATATAAACACACATAGAAATATATAAA [CACACA_site340]”, the “gcPBM binding intensity (ln)” value was 7.79 ± 0.58.
Regarding “CCTCATAAGTTCTTATGTACGTATTGTTCACCTTTA [XGTACX_site6640]”, the “gcPBM binding intensity (ln)” value turned out to be 7.83 ± 0.64.
With “TTAAGAAACAAAGAAAGTACACAACATAATATAGAA [XGTACX_site477]”, the “gcPBM binding intensity (ln)” value came out at 8.04 ± 0.83.
The same measure for “TTAATAATAAAAAGGAGTACACTAATATACTATAAA [XGTACX_site2346]”: 7.99 ± 0.16; for “AATAAAATCATCTATACACACAAAAAAAATAAGAAA [CACACA_site2101]”: 7.75 ± 0.59.
The same measure for “ATATAATATATATATAAACACACAAAAAAAATTATA [CACACA_site8434]”: 7.71 ± 0.6; for “AATAACCACGGACACACACACATATATATATATATA [CACACA_site5873]”: 9.38 ± 0.25.
“ATTTATTAAAAGAAATGTACAGAAAATGTTTGGAAT [XGTACX_site7187]”: the “gcPBM binding intensity (ln)” value worked out at 8.12 ± 0.49.
As for “AAGAAAAAAAAGATAATAATAATAATAATAAAATGA [TGCATGCA_negctrl_site398]”, the “gcPBM binding intensity (ln)” value was found to be 7.62 ± 0.5.
For “ATTTAATATCACAATATATTTTTTACCCTTATCAGC [CACACA_negctrl_site491]”, the “gcPBM binding intensity (ln)” value is 7.59 ± 0.76.
The same measure for “TATATGGTATGTATTACACACATATCACATATATAT [CACACA_site3045]”: 7.67 ± 0.49; for “GGAATGGTACATGATACACACACGCACATATAAATA [CACACA_site7581]”: 7.99 ± 0.49; for “TGGTAAATTGAGAATCGTACATTAAAAAACATAAAA [XGTACX_site3253]”: 7.88 ± 0.64.
For the sequence “TTTTCTATATAGTGTTGTACATTATTGTGTAAAAAT [XGTACX_site3223]”, the “gcPBM binding intensity (ln)” value worked out at 8.04 ± 0.3.
Consider “ATATTTTATACTTGCACACAAAATATATTAAAATGG [CACACA_site5139]”, for which the “gcPBM binding intensity (ln)” value turned out to be 8.78 ± 0.23.
The same measure for “ATAAAATTGGAGCAAACACACAAGGTTGAAATTAAC [CACACA_site506]”: 7.99 ± 0.81.
The same measure for “TTATGTTGTAAATGCACACATACAAATACATATACA [CACACA_site1368]”: 9.79 ± 0.43.
Take “TACAATATAAAATACACACGCACACCGAAAAAAAAA [CACACA_site5865]”: the “gcPBM binding intensity (ln)” value was 8.24 ± 0.64.
The same measure for “AAAGAAAAAGAAAAAGAAAAAATAAAATAAAATAAA [CACACA_negctrl_site872]”: 7.75 ± 1.3; for “TATATATTATATATATGTACTTATTCATATATATAA [XGTACX_site3860]”: 7.54 ± 0.16.
The same measure for CTTTAATATATTTAAGTGCAAAACTAATATGTAAAG: 9.62 ± 0.13; for “TATTTAAAAACAAAAAGTACTAATATATATTTATAC [XGTACX_site1422]”: 7.68 ± 0.46.
For “GACTGAACAACATAATGTACATTTATAAGTATATAT [XGTACX_site3813]”, the “gcPBM binding intensity (ln)” value is 8 ± 0.42.
The same measure for “AGTAGTATGGAGAAAAGTACATAGTATCTGATAACC [XGTACX_site2040]”: 8.12 ± 0.79.
The same measure for “TAAAAAATAAAATACACACACATATATATATATATA [CACACA_site1323]”: 9.33 ± 0.2.
The same measure for “AAAAAAATTAAAGATTGTACTTGATTTTTCATTTTA [XGTACX_site6685]”: 7.24 ± 0.48; for “GAGGGAAAAAATAATCGTACAAAGAAAAAAAAAAAT [XGTACX_site7361]”: 7.99 ± 0.5; for “TATATTCTTTTTTTAACACACAAAAAAAATAAAATA [CACACA_site1898]”: 7.88 ± 0.26.
On to “AAAGAATTGTATAAAAGTACATATTTGTTTGTTTTA [XGTACX_site7380]”, for which the “gcPBM binding intensity (ln)” value was 7.38 ± 0.47.
As for “TTTTTTTCATAAATTAGGTAATGTCGCAGGGGGACA [TGCATGCA_negctrl_site556]”, the “gcPBM binding intensity (ln)” value is 9.21 ± 0.37.
The same measure for “ATATACAAAGAAGCAGTGCATATTTTCTTATTTATG [GTGCAC_site9567]”: 8.99 ± 0.43.
Regarding “TGAAAGAATAGAATGAGTACTAATTTAAATTACACT [XGTACX_site1120]”, the “gcPBM binding intensity (ln)” value came out at 7.79 ± 0.55.
The same measure for “TTGATTTCATTTTAAGTGCATAACTAATATTATATA [GTGCAC_site9713]”: 9.81 ± 0.33; for “TTCTTTATATATTTTTGTACATATTTATTTTTAGAG [XGTACX_site6757]”: 8.15 ± 0.64.
“CAAATACACCAACACACACACACAAAAAAAAAAAAA [CACACA_site514]”: the “gcPBM binding intensity (ln)” value is 8.14 ± 0.26.
As to “TAAGTACGACTTGACACACATACACATATATATATA [CACACA_site1286]”, the “gcPBM binding intensity (ln)” value was 9.38 ± 0.29.
The same measure for “ATTACCAACAGATCTTGTACATATTAAAGCATCTTA [XGTACX_site2361]”: 7.84 ± 0.57.
